Where “and” joins values, the source holds several entries; their conditions need not be identical. Identical values can stand only once. Hit rate of the full screen: of about 270,000 compounds, about 5,800 (2.1%) were called active. Inconclusive results, whose numbers are uncertain, are shown with a selection of clear calls. The call rests on the fitted dose curve; in most records, active means well fitted inhibition curve with a large enough effect; inconclusive means small, poorly fitted or top-dose-only effect; inactive means flat fitted curve, though single readings scatter. Potencies of inconclusive entries are doubtful fits and often do not repeat.
These compounds were tested against Microtubule-associated protein tau (Homo sapiens) (UniProt P10636) (assay: qHTS for Inhibitors of Tau Fibril Formation, Thioflavin T Binding). Conditions: recombinant tau K18 P301L (four-repeat tau fragment), heparin-induced fibrillization, ThT fluorescence; series mostly up to 57.4 µM.
Sequence of UniProt P10636 (P10636 whole entry, looked up, the tested form may be a part): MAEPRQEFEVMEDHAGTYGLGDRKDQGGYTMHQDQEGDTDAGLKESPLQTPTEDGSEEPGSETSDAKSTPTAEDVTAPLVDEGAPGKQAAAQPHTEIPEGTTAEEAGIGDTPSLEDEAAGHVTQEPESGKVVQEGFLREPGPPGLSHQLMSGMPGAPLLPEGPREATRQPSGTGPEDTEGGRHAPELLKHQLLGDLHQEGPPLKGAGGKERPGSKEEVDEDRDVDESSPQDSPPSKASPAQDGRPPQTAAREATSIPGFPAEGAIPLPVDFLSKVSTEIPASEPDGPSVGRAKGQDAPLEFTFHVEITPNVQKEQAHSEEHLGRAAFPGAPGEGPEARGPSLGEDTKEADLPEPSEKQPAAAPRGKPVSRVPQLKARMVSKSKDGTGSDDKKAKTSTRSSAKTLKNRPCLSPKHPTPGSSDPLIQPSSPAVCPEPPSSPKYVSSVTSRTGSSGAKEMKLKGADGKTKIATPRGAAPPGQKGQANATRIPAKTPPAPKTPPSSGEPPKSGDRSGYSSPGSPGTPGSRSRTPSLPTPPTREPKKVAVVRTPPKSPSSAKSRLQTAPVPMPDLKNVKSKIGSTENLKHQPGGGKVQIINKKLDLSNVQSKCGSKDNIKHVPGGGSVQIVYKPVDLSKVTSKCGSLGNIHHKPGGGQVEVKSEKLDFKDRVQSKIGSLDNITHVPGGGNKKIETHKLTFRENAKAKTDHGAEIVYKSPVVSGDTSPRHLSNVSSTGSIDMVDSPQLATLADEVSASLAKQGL
Outline: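 Tau K18 P301L fragment (15 uM unlabeled plus 0.24 uM Alexa 594-labeled) in 100 mM sodium acetate pH 7 with compound, fibrillization induced by 20 uM heparin for 6 hr at 37 C. Thioflavin T (30 uM) added, fluorescence read after 1 hr (ex 450, em 510 nm).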
Further: nearly all actives have a fitted effect of over 55% in size.
Potency means the concentration at half of the fitted maximal effect; tags describe the fitted curve by direction and shape.

| SMILES | Potency |
| --- | --- |
| CCOC(=O)c1c(C)[nH]c(C(=O)N/N=C/c2cccc(OC)c2)c1C | inconclusive: 0.708 µM [inhibitor, full curve] |
| CCOC(=O)C1CCCN(CC(=O)N2CCCc3c2c(=O)oc2ccc(OCc4ccccc4)cc32)C1 (stereo unspecified) | inconclusive: 25.1 µM [inhibitor, partial curve, poor fit] |
| CCCCOc1ccc(C(=O)N/C(=C/C=C/c2ccccc2)C(=O)NC)cc1 | inconclusive: 0.398 µM [inhibitor, partial curve, poor fit] |
| CNC(=S)NNc1nncc2ccccc12 | inactive |
| COc1ccc2c(Sc3ccccc3)c(C(=O)NCCc3ccc(Cl)cc3)[nH]c2c1 | inconclusive: 14.1 µM [inhibitor, partial curve] |
| O=C1CC(=C(c2ccccc2)c2ccccc2)C(=O)N1CCCCN1CCN(c2cccc(Cl)c2)CC1 | inconclusive: 11.2 µM [inhibitor, single point] |
| O=C(CN1C(=O)COc2ccc(S(=O)(=O)N3CCCC3)cc21)N1CCN(c2ccccc2)CC1 | inactive |
| COc1ccc(C2/C=C\CC(OCc3ccccc3)CC(=O)N2Cc2cccc(F)c2)cc1 (stereo unspecified) | inconclusive: 44.7 µM [inhibitor, single point] |
| Nn1c(SC/C=C/c2ccccc2)nnc1-c1ccncc1 | inactive |
| Cc1nn2cc(-c3cccc(Cl)c3)cnc2c1Cl | inconclusive: 2.24 µM [inhibitor, full curve] |
| CC(=C/c1ccccc1)/C=N/N1CCN(Cc2ccc(C)cc2)CC1 | inconclusive: 12.6 µM [inhibitor, partial curve] |
| CC(C)=NNC(=O)c1c(O)c2ccccc2[nH]c1=O | inconclusive: 3.16 µM [inhibitor, full curve, poor fit] |
| CC(=O)c1cccc(NC(=O)c2nc3ccccc3n(C)c2=O)c1 | inconclusive: 15.8 µM [inhibitor, partial curve, poor fit] |
| C/C(=N/OCC(=O)NCCCCCCNC(=O)CO/N=C(/C)c1cccs1)c1cccs1 | inactive |
| CCOC(=O)c1c(-c2ccc(C)o2)csc1NC(=O)CSc1ncn[nH]1 | inactive |
| COc1cccc2cc(-c3nc(Nc4cccc(C)c4)sc3C)c(=O)oc12 | inconclusive: 1.58 µM [inhibitor, full curve] |
| COc1cc(/C=N/NC(=O)c2cc(C)oc2C)ccc1O | inconclusive: 20 µM [inhibitor, partial curve] |
| C=CC1=C(C)C2=NC1=CC1=NC(=CC3=NC(=CC4=NC(=C2)C(C)=C4CCC(=O)O)C(CCC(=O)O)=C3C)C(C=C)=C1C.[Zn] | active: 6.31 µM |
| COc1cccc(CN2C(=O)c3ccccc3Sc3ccc(C(=O)N(C)Cc4ccccc4)cc32)c1 | inactive |
| CCn1c(=O)c2cc(C(=O)Nc3cc(OC)c(OC)c(OC)c3)sc2c2ccccc21 | inconclusive: 3.16 µM [inhibitor, partial curve] |
| Cc1cccc(C2C3=C(Nc4[nH]n(-c5ccccc5)c(=O)c42)c2ccccc2C3=O)c1 (stereo unspecified) | active: 15.8 µM |

| SMILES | Potency |
| --- | --- |
| Cc1nc2ccccc2n1CC(O)COC1CCCCC1 (stereo unspecified) | inactive |
| CCCN1CCC(=NNc2ccc(S(N)(=O)=O)cc2[N+](=O)[O-])CC1 | inconclusive: 15.8 µM [inhibitor, partial curve] |
| Cn1cccc1Cc1nnc(SCC(=O)N2CCCCCC2)n1CCc1ccccc1 | inconclusive: 17.8 µM [inhibitor, partial curve] |
| COc1ccc(OC)c(C2Nc3c(Cl)ccc(C(=O)O)c3C3C=CCC32)c1 (stereo unspecified) | inconclusive: 20 µM [inhibitor, partial curve] |
| COc1ccc(NS(=O)(=O)c2ccc(NC(=S)NC(=O)/C=C/c3ccccc3)cc2)nn1 | inconclusive: 14.1 µM [inhibitor, partial curve] |
| Cc1cccc(-c2noc(-c3ccccc3NC(=O)C3CC(=O)N(c4ccccc4C)C3)n2)c1 (stereo unspecified) | inconclusive: 14.1 µM [inhibitor, partial curve, poor fit] |
| COc1ccc(C(CC(=O)c2ccc(C)cc2)C(C#N)C#N)cc1OC (stereo unspecified) | inconclusive: 28.2 µM [inhibitor, partial curve] |
| CCN(CC)c1ccc(C(=S)NC2CCCCC2)cc1 | inconclusive: 28.2 µM [inhibitor, single point] |
| O=C(/C=C/c1ccc(F)cc1)NC(=S)NNC(=O)c1cccnc1 | inconclusive: 1.78 µM [inhibitor, full curve] |
| COC(=O)c1ccccc1NC(=O)N1CCN(c2ccc(F)cc2)CC1 | inconclusive: 28.2 µM [inhibitor, single point] |
| Cc1cccc(CNS(=O)(=O)c2ccc(-c3cnc(C4CC4)o3)cc2)c1 | inconclusive: 2.82 µM [inhibitor, partial curve] |
| COc1ccc(C(=O)Nc2nc3nc(C)c(Cc4ccccc4)c(=O)n3[nH]2)cc1OC | inconclusive: 5.62 µM [inhibitor, partial curve] |
| COc1ccc(N2CCN(c3ncnc4c3[nH]c3ccccc34)CC2)cc1 | inconclusive: 2.51 µM [inhibitor, full curve] |
| O=C(Cc1cccs1)N/N=C/C(Cl)=C/c1ccccc1 | inactive |
| CC1=C(C(=O)N2CCN(c3cc(C)ccc3C)CC2)C2(CCC(C)CC2)OC1=O (stereo unspecified) | inconclusive: 31.6 µM [inhibitor, single point] and inconclusive: 44.7 µM [inhibitor, single point] |
| CC(C)CCNC(=O)c1ccc2c(c1)NC(=O)C(CS(=O)(=O)Cc1ccc(F)cc1)N2 (stereo unspecified) | inconclusive: 25.1 µM [inhibitor, partial curve] |
| COC(=O)CCCC1=CC2=CC(=O)C(C)(OC(=O)c3cccs3)C(=O)C2=CN1CC(C)C (stereo unspecified) | inconclusive: 0.0891 µM [inhibitor, full curve, poor fit] |
| COCCN(C(=S)Nc1c(C)cc(C)cc1C)C(C)c1cccnc1 (stereo unspecified) | inactive |
| Nc1ccc2oc(-c3cccc4ccccc34)nc2c1 | inconclusive: 8.91 µM [inhibitor, partial curve] |
| CCc1nnc(SCc2c(F)cccc2Cl)c2cc3sccc3n12 | inconclusive: 8.91 µM [inhibitor, partial curve] |

Reference: PubChem BioAssay AID1460 (National Center for Advancing Translational Sciences (NCATS), 2008)
